According to the supplement of paper PMC3334620:
The full ranking holds about 33,000 sequences; the median of “E-score (-0.5 to 0.5)” is about -0.054, and the highest 2% start at about 0.35. The list shows a part of the results.

Each sequence was assayed against T1, Stb5 (UniProt P38699) (assay: PBM E-score (8-mer binding enrichment) (E-score (-0.5 to 0.5)); higher = stronger / more preferred TF binding; most listed sequences are background and not binding sites). Conditions: protein concentration: 200 nM; construct: GST-full length.
T1 sequence: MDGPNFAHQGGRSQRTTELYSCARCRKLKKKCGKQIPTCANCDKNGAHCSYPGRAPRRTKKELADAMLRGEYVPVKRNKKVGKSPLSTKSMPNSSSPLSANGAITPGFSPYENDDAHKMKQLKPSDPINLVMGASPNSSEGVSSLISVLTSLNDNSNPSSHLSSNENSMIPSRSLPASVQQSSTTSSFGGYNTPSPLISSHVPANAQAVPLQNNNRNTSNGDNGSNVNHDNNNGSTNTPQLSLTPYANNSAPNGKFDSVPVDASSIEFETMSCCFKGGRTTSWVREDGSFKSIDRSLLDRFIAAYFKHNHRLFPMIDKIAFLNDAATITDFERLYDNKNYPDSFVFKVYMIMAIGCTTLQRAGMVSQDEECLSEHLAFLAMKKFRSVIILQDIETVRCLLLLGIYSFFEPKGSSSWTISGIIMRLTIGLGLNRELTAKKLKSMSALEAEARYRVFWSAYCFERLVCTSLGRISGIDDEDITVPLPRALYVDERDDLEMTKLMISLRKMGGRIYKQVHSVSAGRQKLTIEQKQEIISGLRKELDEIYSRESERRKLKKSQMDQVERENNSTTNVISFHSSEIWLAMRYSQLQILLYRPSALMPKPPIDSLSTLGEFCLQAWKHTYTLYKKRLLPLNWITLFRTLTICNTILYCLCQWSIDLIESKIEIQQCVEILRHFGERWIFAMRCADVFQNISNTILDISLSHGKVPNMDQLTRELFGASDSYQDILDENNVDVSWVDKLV
Outline: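 Universal all-10-mer Agilent arrays, fresh or stripped once, were converted to double-stranded form by primer extension. GST-tagged yeast transcription factors from PURExpress in vitro transcription/translation, full-length or DNA-binding domain only, were applied at about 100-200 nM and detected with fluorescent anti-GST. After masliner normalisation, the Universal PBM Analysis Suite scored each ungapped eight-base word together with its reverse complement by E-score.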

| Sequence | PBM E-score |
| --- | --- |
| ATTGATGA | -0.158 |
| CGGCCCAA | 0.244 |
| CGGAACCA | 0.276 |
| ACCGCGAG | 0.288 |
| TTAGTAAA | 0.0358 |
| GACTAGCC | -0.161 |
| TCTATAAA | -0.0844 |
| CCCATGCA | -0.227 |
| ACAACTAT | -0.138 |
| CATCTTAC | -0.165 |
| AGCATAGG | -0.0842 |
| ACACTAGA | 0.00688 |
| ATAGTCGA | -0.258 |
| CGGATATC | 0.193 |
| AGTCGCTC | -0.148 |
| ACTTCTGG | -0.108 |
| ATCTGAAC | -0.223 |
| CAGCATTC | -0.231 |
| CATGACAC | -0.0362 |
| CGATGCTA | 0.095 |
| CCCTAAGC | -0.106 |
| CAGGGTGA | -0.204 |
| CGTGCGCA | -0.0891 |
| CAAGTCTG | -0.278 |
| CCAACATA | -0.0617 |

| Sequence | PBM E-score |
| --- | --- |
| AACGGATG | 0.0921 |
| CGTCTACA | -0.00368 |
| CTCTCATA | -0.183 |
| TGGCCGAA | 0.0346 |
| GTTCGGTA | 0.206 |
| ACTTTGTG | -0.141 |
| GTTACATA | 0.109 |
| GCCTGCAC | -0.196 |
| ACGCGGGA | 0.0654 |
| ACCAAATA | -0.128 |
| CGCCACGA | 0.0762 |
| CTCCATTA | 0.106 |
| AAGGTGAT | 0.117 |
| CGTGCCAG | -0.231 |
| AGGCAGCA | -0.105 |
| ACCACAAA | 0.0622 |
| CCTTAGAC | 0.0245 |
| AATATAAT | -0.0847 |
| CCGACGAC | 0.312 |
| ATCGTCCC | 0.134 |
| GTTGCCGA | 0.221 |
| AAGCGTCG | 0.0529 |
| GACCGAGA | 0.203 |
| CCCTCCAG | -0.06 |
| AACCTCGC | -0.0263 |

| Sequence | PBM E-score |
| --- | --- |
| CCTACGCA | -0.0806 |
| TAACTTGA | -0.222 |
| GCCATCAA | -0.231 |
| CGTCTTCC | 0.0107 |
| AGCCTACT | -0.154 |
| GACGTGCA | -0.196 |
| CCCTACCC | -0.238 |
| AATATTCG | -0.0349 |
| AGGCCTCG | -0.16 |
| AGATGACT | -0.138 |
| GCAAACGC | -0.04 |
| GAATTCGC | -0.0352 |
| ATGCTCCA | -0.175 |
| CGACGCCG | 0.331 |
| AAAAGAGG | -0.365 |
| CAATCTCG | -0.175 |
| GACGTATC | -0.0386 |
| AAGGACGA | -0.334 |
| AGGTATAC | -0.0409 |
| ACCGACAC | 0.361 |
| ACCGGGCC | 0.306 |
| GCTTTGAC | 0.0766 |
| TAGTAGGA | -0.0819 |
| TCCAACAA | -0.129 |
| ACTAACAA | -0.0751 |

| Sequence | PBM E-score |
| --- | --- |
| CTGGGGAA | -0.131 |
| AGAACCTC | -0.0298 |
| TAATTGTA | -0.148 |
| CCGTAGCG | 0.118 |
| ATCATCAC | -0.193 |
| ACACCGTA | 0.346 |
| ACTTCGCA | -0.217 |
| CAGGTAGC | -0.176 |
| CCTCATCC | -0.0928 |
| TCAAGTGA | -0.298 |
| CTACGGGC | 0.246 |
| CAATGCGC | -0.156 |
| TGGGAAAA | -0.208 |
| TCTCAGAA | -0.297 |
| AATATTGA | -0.098 |
| AAGCATTA | -0.125 |
| CTGCACTA | -0.0814 |
| AGGCATAA | -0.0575 |
| CAATATAG | -0.185 |
| CAGAAAGC | -0.165 |
| GGTTTAAA | 0.173 |
| ACGTCGAA | -0.193 |
| AAGTCCGT | 0.454 |
| GTGCACAA | -0.179 |
| AGTACCGC | 0.435 |

| Sequence | PBM E-score |
| --- | --- |
| ATGGTCGG | 0.33 |
| ATTGTCTG | -0.17 |
| CCGACCAC | 0.298 |
| AAATTACT | -0.148 |
| CTGAATTA | -0.151 |
| CTGCTAGC | -0.0619 |
| AGCGCAAT | -0.212 |
| AGATCTTG | -0.216 |
| AACTCTGA | -0.156 |
| ACTAGGAC | -0.082 |
| GAAAGTGA | -0.238 |
| AACCAGAA | -0.137 |
| CGATACGA | -0.06 |
| ACTTTTAT | 0.0791 |
| ATCATTTG | -0.216 |
| GGGTAATA | 0.143 |
| TGGGTACA | -0.137 |
| TAGCGTGA | -0.222 |
| AATAAGAT | -0.0589 |
| CGGCTCGC | -0.0672 |
| CATTGAAG | -0.242 |
| TTAGCGAA | -0.057 |
| CAGCAAAC | -0.18 |
| GATATGTA | -0.0956 |
| CCCTACTA | 0.0818 |

| Sequence | PBM E-score |
| --- | --- |
| CTTACTGA | -0.164 |
| CGTTATGC | 0.0268 |
| ACTTTGTA | -0.207 |
| CGGCCTAC | 0.00503 |
| ATCTACAC | -0.164 |
| CCCGATAG | 0.248 |
| CAATTCCA | -0.216 |
| CCCCTACC | -0.0642 |
| ACAAAAAG | -0.0544 |
| ATGCTGAC | -0.217 |
| ACAAGCAT | -0.155 |
| GAAGTAGA | -0.158 |
| AGCCACAG | -0.219 |
| TAAACGGA | 0.161 |
| TCACTGCA | -0.228 |
| CGATGCTC | 0.102 |
| GCAATAGC | 0.0802 |
| ATCAGTAA | -0.13 |
| CGCAATGA | -0.164 |
| GGTCGACC | 0.297 |
| CTTCTTCA | -0.196 |
| CATGCCCG | 0.122 |
| GCAAAATA | 0.048 |
| TAAGAATA | -0.00633 |
| ATGCGTCG | 0.0983 |

| Sequence | PBM E-score |
| --- | --- |
| ACAGAGTG | -0.139 |
| AGAATAAA | 0.0556 |
| GTGCCTAA | -0.104 |
| AATGATAT | -0.0624 |
| AGGGACAT | -0.166 |
| GACGGCTA | 0.0665 |
| CCGATAGA | 0.249 |
| CAACAACG | -0.0434 |
| CCTTTAGA | -0.193 |
| CAGTAAAA | 0.0217 |
| ACGGTATC | 0.246 |
| ATCGTGAA | -0.018 |
| CTAATGAC | -0.0836 |
| CCAGAAAA | -0.296 |
| CCGTGGTA | -0.0527 |
| AACGGCCC | 0.14 |
| CATCATAA | -0.135 |
| GTCGTGAA | -0.0951 |
| TGCCAGCA | -0.112 |
| GCGGTACC | 0.295 |
| GAATTAGC | -0.0839 |
| AGAAGTAC | -0.0915 |
